Test results from the RNAGym collection of RNA variant scans (doi:10.1093/nar/gkz1192).
Read counts are not given, so values of variants with three or more changes are uncertain.

B1: CPEB3 Ribozyme (parent)
chain: UAACAGGGGGCCACAGCAGAAGCGUUCACGUCGCAGCCCCUGUCAGAUUCUGGUGAAUCUGCGAAUUCUGCUGUAUAUCUC

Variants of: B1
Experiment: self-cleavage, relative activity (ratio to wild type); higher = more cleavage; in vitro, sequencing
Outline: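 For each CPEB3 ribozyme variant, relative activity is its cleaved/total read fraction divided by the unmutated ribozyme's. Barcoded error-prone PCR libraries were transcribed by T7 RNA polymerase (5 hours, 37°C) and held in DNase I for 15 min before an EDTA stop, with cleavage occurring throughout. Template-switching reverse transcription and Illumina sequencing were used to read the RNAs. A 5-read minimum applied, and results are the mean of three batches.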

Variant | self-cleavage
G8U A35G A45G U49C | 0.07
G8U C14A A64G A65G | 0.18
G8U A57G U67A C68A U76A | 0.05
G8A U25C A65G C81A | 0.05
G8A G10A C29U G55C | 0.14
G8U A47G U60A U69C | 0.04
G9A U41C C44A U58G | 0.15
G8A U25C U26A U41A U51G U74C | 0.2
G8A U26A A47U A57U A64G A65G U74C | 0.03
G9C A21G G33A U54C U66C G73A | 0.04
G8U A18G A28G U31A | 0.21
G8C C40G A45G U60C U74C | 0.11
G8U A18U A21G | 0.42
G9A U41A A64U | 0.07
G8A A28G A56C A65U U67A | 0.07
G8A A21G U26A | 0.06
G8C G16C A18G G36C | 0.15
G9A A18U C39U U43C A45G G46U U66C | 0.04
G8U A13U U41A U51A | 0.05
G8A A15U G61A U66C | 0.12
G8A G10A G24U A75U | 0.18

Variant | self-cleavage
G8A U51G A75U | 0.29
G9A G24U C34G U51C A57U U74C | 0.06
G8U A18U U31A U74C | 0.07
G8A U26C A45G U60C A64G U67C | 0.04
G8C G22C A35G A45G | 0.06
G9C A35G A47G A56G U69A | 0.08
G8A A20G U48C U54C | 0.14
G8A U60C A64G | 0.29
G9U A13U A64U | 0.06
G8A G24U U58G A65G C71U U80C | 0.04
G9A A13G U26C A77G | 0.2
G9A U67C G70A U74A | 0.11
G8U A20G A21G U60A U80C | 0.17
G9U A15U U51G U60A U72C | 0.05
G8U C12A U80A | 0.09
G9A A18U A35U A45G U67C | 0.05
G9A A13U U66C | 0.3
G8A A47G U54C U67C | 0.04
G9C U49C U66C A75U U78C | 0.12
G9A U26C A45G | 0.07
G9A U25A U31C A57G | 0.37

Variant | self-cleavage
G9A A20U A47G U58C | 0.18
G9A G33A U41C A57G | 0.06
G9U A20G A35U U41C U80C | 0.05
G9A G22U U26C U49C | 0.05
G9C U26G U31C U58A | 0.06
G8U A13U U78C | 0.08
G8A A35G U43A U51A U66A U72C A77G | 0.13
G9U A13U A20G U26A | 0.12
G8A A28U A35U G36U U60C | 0.05
G8U A18G A28U U54C | 0.2
G8C A28U U31C U80C | 0.23
G9A C23U A35G U58C G70A U80C | 0.1
G9A A20C U72C | 0.34
G8U A28G U67C | 0.1
G9A A47G U51C A56C | 0.05
G8A U41A U54C U67A C79U | 0.06
G8U A20U U26C A45U U72C | 0.17
G8U U60C U80A | 0.21
G8U U60C U80C | 0.16
G8U U43C A45G A77C | 0.12
G8U A56G U74A | 0.23

Variant | self-cleavage
G8U U60C U67C | 0.06
G8A C23G U26C U41A U69C U74A | 0.04
G9U A20G U76A | 0.19
G9A A21G U26C A35U | 0.05
G8C A15G A28U U43C | 0.63
G9C A18U G30A A45U | 0.06
G8C C17G A18G U25A A47G A64G | 0.06
G9A C39A U60A C71G U80A | 0.03
G8U A21G C23A U43C U69A | 0.1
G9A A28G U43C U49A C62U | 0.06
G8C C11A C62U C68A | 0.17
G9A U60A C62U | 0.09
G9A C40U A45G U49G A65U | 0.05
G8A A20G U25G A47G | 0.07
G9C A21U A57G U80C | 0.05
G8A U26C U69C | 0.1
G9A A56G U66C | 0.05
G8A A18G U25A G36A U80C | 0.04
G9A A20G U25C U78C | 0.31
G9U A15U A56G A57U | 0.07
